{"source": "the supplement of paper PMC8728848", "binders": {"B1": {"name": "Cohesin-hDC-ASGPR (Homo sapiens) (protein)", "chain": "LDDLDAVRIKVDTVNAKPGDTVRIPVRFSGIPSKGIANCDFVYSYDPNVLEIIEIEPGDIIVDPNPDKSFDTAVYPDRKIIVFLFAEDSGTGAYAITKDGVFATIVAKVKEGAPNGLSVIKFVEVGGFANNDLVEQKTQFFDGGANVGDTTEPATPTTPVTTPTTTDDLDAASQNSKFQRDLVTLRTDFSNFTSNTVAEIQALTSQGSSLEETIASLKAEVEGFKQERQAGVSELQEHTTQKAHLGHCPHCPSVCVPVHSEMLLRVQQLVQDLKKLTCQVATLNNNASTEGTCCPVNWVEHQDSCYWFSHSGMSWAEAEKYCQLKNAHLVVINSREEQNFVQKYLGSAYTWMGLSDPEGAWKWVDGTDYATGFQNWKPGQPDDWQGHGLGGGEDCAHFHPDGRWNDDVCQRPYHWVCEAGLGQTSQESHHHHHH"}}, "assay_in_all_cases": "glycan array binding signal (z-score within array); higher = stronger binding", "settings_in_all_cases": "glycan notation: IUPAC condensed, linker removed", "key": {"[1]": {"target": "Man(a1-2)Man(a1-3)[Man(a1-2)Man(a1-6)]Man(a1-6)[Man(a1-2)Man(a1-2)Man(a1-3)]Man", "outline": "(§1)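 Arrays were curated from the Consortium for Functional Glycomics database, 3228 in total, and kept only where the protein sequence was available. Binding is expressed as a within-array Z-score. This score was averaged across arrays of the same protein sequence at different concentrations or buffers and across linkers, and negative values can be read as non-binding.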"}, "[2]": {"target": "Man(a1-2)Man(a1-3)[Man(a1-2)Man(a1-6)]Man(a1-6)[Man(a1-2)Man(a1-2)Man(a1-3)]Man(b1-4)GlcNAc(b1-4)GlcNAc", "outline": "as §1"}, "[3]": {"target": "Man(a1-2)Man(a1-3)[Man(a1-6)]Man(a1-6)[Man(a1-2)Man(a1-3)]Man(b1-4)GlcNAc(b1-4)GlcNAc", "outline": "as §1"}, "[4]": {"target": "Man(a1-2)Man(a1-6)[Man(a1-3)]Man(a1-6)[Man(a1-2)Man(a1-2)Man(a1-3)]Man", "outline": "as §1"}, "[5]": {"target": "Man(a1-2)Man(a1-6)[Man(a1-3)]Man(a1-6)[Man(a1-2)Man(a1-2)Man(a1-3)]Man(b1-4)GlcNAc(b1-4)GlcNAc", "outline": "as §1"}, "[6]": {"target": "Man(a1-3)[Man(a1-6)]Man", "outline": "as §1"}, "[7]": {"target": "Man(a1-3)[Man(a1-6)]Man(a1-6)[Man(a1-2)Man(a1-3)]Man(b1-4)GlcNAc(b1-4)GlcNAc", "outline": "as §1"}, "[8]": {"target": "Man(a1-3)[Man(a1-6)]Man(a1-6)[Man(a1-3)]Man", "outline": "as §1"}, "[9]": {"target": "Man(a1-3)[Man(a1-6)]Man(a1-6)[Man(a1-3)]Man(b1-4)GlcNAc(b1-4)GlcNAc", "outline": "as §1"}, "[10]": {"target": "Man(a1-3)[Man(a1-6)]Man(b1-4)GlcNAc(b1-4)GlcNAc", "outline": "as §1"}, "[11]": {"target": "Man(a1-3)[Man(a1-6)]Man(b1-4)GlcNAc(b1-4)[Fuc(a1-6)]GlcNAc", "outline": "as §1"}, "[12]": {"target": "Man(a1-6)Man", "outline": "as §1"}, "[13]": {"target": "Man(b1-4)GlcNAc", "outline": "as §1"}, "[14]": {"target": "MurNAc(b1-4)GlcNAc", "outline": "as §1"}, "[15]": {"target": "Neu5Ac(a2-3)Gal", "outline": "as §1"}, "[16]": {"target": "Neu5Ac(a2-3)Gal(b1-3)GalNAc", "outline": "as §1"}, "[17]": {"target": "Neu5Ac(a2-3)Gal(b1-3)GalNAc(b1-3)Gal(a1-4)Gal(b1-4)Glc", "outline": "as §1"}, "[18]": {"target": "Neu5Ac(a2-3)Gal(b1-3)GalNAc(b1-4)[Neu5Ac(a2-3)]Gal(b1-4)Glc", "outline": "as §1"}, "[19]": {"target": "Neu5Ac(a2-3)Gal(b1-3)GalNAc(b1-4)[Neu5Ac(a2-8)Neu5Ac(a2-3)]Gal(b1-4)Glc", "outline": "as §1"}, "[20]": {"target": "Neu5Ac(a2-3)Gal(b1-3)GalNAc6S", "outline": "as §1"}, "[21]": {"target": "Neu5Ac(a2-3)Gal(b1-3)GlcNAc", "outline": "as §1"}, "[22]": {"target": "Neu5Ac(a2-3)Gal(b1-3)GlcNAc(b1-2)Man", "outline": "as §1"}, "[23]": {"target": "Neu5Ac(a2-3)Gal(b1-3)GlcNAc(b1-2)Man(a1-3)[GlcNAc(b1-4)][Neu5Ac(a2-3)Gal(b1-3)GlcNAc(b1-2)Man(a1-6)]Man(b1-4)GlcNAc(b1-4)GlcNAc", "outline": "as §1"}, "[24]": {"target": "Neu5Ac(a2-3)Gal(b1-3)GlcNAc(b1-2)Man(a1-3)[Neu5Ac(a2-3)Gal(b1-3)GlcNAc(b1-2)Man(a1-6)]Man(b1-4)GlcNAc(b1-4)GlcNAc", "outline": "as §1"}, "[25]": {"target": "Neu5Ac(a2-3)Gal(b1-3)GlcNAc(b1-3)Gal(b1-3)GlcNAc", "outline": "as §1"}, "[26]": {"target": "Neu5Ac(a2-3)Gal(b1-3)GlcNAc(b1-3)Gal(b1-4)GlcNAc", "outline": "as §1"}, "[27]": {"target": "Neu5Ac(a2-3)Gal(b1-3)GlcNAc(b1-3)GalNAc", "outline": "as §1"}, "[28]": {"target": "Neu5Ac(a2-3)Gal(b1-3)GlcNAc(b1-4)Gal(b1-4)Glc", "outline": "as §1"}, "[29]": {"target": "Neu5Ac(a2-3)Gal(b1-3)GlcNAc(b1-6)GalNAc", "outline": "as §1"}, "[30]": {"target": "Neu5Ac(a2-3)Gal(b1-3)GlcNAc6S", "outline": "as §1"}, "[31]": {"target": "Neu5Ac(a2-3)Gal(b1-3)[Fuc(a1-4)]GlcNAc", "outline": "as §1"}, "[32]": {"target": "Neu5Ac(a2-3)Gal(b1-3)[Fuc(a1-4)]GlcNAc(b1-3)Gal(b1-3)[Fuc(a1-4)]GlcNAc", "outline": "as §1"}, "[33]": {"target": "Neu5Ac(a2-3)Gal(b1-3)[Fuc(a1-4)]GlcNAc(b1-3)Gal(b1-4)[Fuc(a1-3)]GlcNAc", "outline": "as §1"}, "[34]": {"target": "Neu5Ac(a2-3)Gal(b1-3)[GlcNAc(b1-6)]GalNAc", "outline": "as §1"}, "[35]": {"target": "Neu5Ac(a2-3)Gal(b1-3)[Neu5Ac(a2-6)]GalNAc", "outline": "as §1"}, "[36]": {"target": "Neu5Ac(a2-3)Gal(b1-3)[Neu5Ac(a2-6)]GlcNAc(b1-3)[Fuc(a1-3)[Gal(b1-4)]GlcNAc(b1-6)]Gal(b1-4)Glc", "outline": "as §1"}, "[37]": {"target": "Neu5Ac(a2-3)Gal(b1-3)]Neu5Ac(a2-3)Gal(b1-4)]GlcNAc", "outline": "as §1"}}, "note": "The other results are listed elsewhere or left out."}
{"binder": "B1", "values": [{"measurement": "glycan array binding signal (z-score)", "setting": "[1]", "result": -0.512}, {"measurement": "glycan array binding signal (z-score)", "setting": "[2]", "result": -0.402}, {"measurement": "glycan array binding signal (z-score)", "setting": "[3]", "result": -0.5}, {"measurement": "glycan array binding signal (z-score)", "setting": "[4]", "result": -0.48}, {"measurement": "glycan array binding signal (z-score)", "setting": "[5]", "result": -0.463}, {"measurement": "glycan array binding signal (z-score)", "setting": "[6]", "result": -0.405}, {"measurement": "glycan array binding signal (z-score)", "setting": "[7]", "result": -0.49}, {"measurement": "glycan array binding signal (z-score)", "setting": "[8]", "result": -0.43}, {"measurement": "glycan array binding signal (z-score)", "setting": "[9]", "result": -0.509}, {"measurement": "glycan array binding signal (z-score)", "setting": "[10]", "result": -0.389}, {"measurement": "glycan array binding signal (z-score)", "setting": "[11]", "result": -0.505}, {"measurement": "glycan array binding signal (z-score)", "setting": "[12]", "result": 0.057}, {"measurement": "glycan array binding signal (z-score)", "setting": "[13]", "result": -0.482}, {"measurement": "glycan array binding signal (z-score)", "setting": "[14]", "result": -0.48}, {"measurement": "glycan array binding signal (z-score)", "setting": "[15]", "result": -0.335}, {"measurement": "glycan array binding signal (z-score)", "setting": "[16]", "result": -0.494}, {"measurement": "glycan array binding signal (z-score)", "setting": "[17]", "result": -0.454}, {"measurement": "glycan array binding signal (z-score)", "setting": "[18]", "result": -0.404}, {"measurement": "glycan array binding signal (z-score)", "setting": "[19]", "result": -0.364}, {"measurement": "glycan array binding signal (z-score)", "setting": "[20]", "result": 0.47}, {"measurement": "glycan array binding signal (z-score)", "setting": "[21]", "result": -0.508}, {"measurement": "glycan array binding signal (z-score)", "setting": "[22]", "result": -0.472}, {"measurement": "glycan array binding signal (z-score)", "setting": "[23]", "result": -0.478}, {"measurement": "glycan array binding signal (z-score)", "setting": "[24]", "result": -0.333}, {"measurement": "glycan array binding signal (z-score)", "setting": "[25]", "result": -0.483}, {"measurement": "glycan array binding signal (z-score)", "setting": "[26]", "result": -0.511}, {"measurement": "glycan array binding signal (z-score)", "setting": "[27]", "result": -0.397}, {"measurement": "glycan array binding signal (z-score)", "setting": "[28]", "result": -0.483}, {"measurement": "glycan array binding signal (z-score)", "setting": "[29]", "result": 2.67}, {"measurement": "glycan array binding signal (z-score)", "setting": "[30]", "result": -0.403}, {"measurement": "glycan array binding signal (z-score)", "setting": "[31]", "result": -0.462}, {"measurement": "glycan array binding signal (z-score)", "setting": "[32]", "result": 0.384}, {"measurement": "glycan array binding signal (z-score)", "setting": "[33]", "result": -0.098}, {"measurement": "glycan array binding signal (z-score)", "setting": "[34]", "result": -0.493}, {"measurement": "glycan array binding signal (z-score)", "setting": "[35]", "result": 0.82}, {"measurement": "glycan array binding signal (z-score)", "setting": "[36]", "result": -0.427}, {"measurement": "glycan array binding signal (z-score)", "setting": "[37]", "result": -0.475}]}
